From PubChem BioAssay AID504466 (National Center for Advancing Translational Sciences (NCATS), 2011)
Screen size: about 330,000 compounds; about 4,200 (1.3%) were called active. The inconclusive results got no clear call from the source; some entries with a clear call stand among them for comparison. The call rests on the fitted dose curve; in most records, active means well fitted activation curve with a large enough effect; inconclusive means small, poorly fitted or top-dose-only effect; inactive means no such curve, though single readings can be large or run the other way. Potencies of inconclusive entries are doubtful fits and often do not repeat.

experiment: qHTS screen for small molecules that induce genotoxicity in human embryonic kidney (HEK293T) cells expressing luciferase-tagged ELG1; conditions: HEK293T ELG1-luciferase reporter, luminescence, 16 h; series mostly up to 46 µM; further: nearly all actives have a fitted effect of over 60% in size; on activity change, positive = activation: % of control where 0% means no effect
Method in brief: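 Cells (2,000/well) expressing the ELG1-luciferase fusion are dosed by pin tool and kept 16 hr at 37 °C, 5% CO2. Signal comes from ONE-Glo luciferase reagent after 30 min at room temperature.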
Potency means the concentration at half of the fitted maximal effect; tags describe the fitted curve by direction and shape.

Row | SMILES | Potency | activity change, positive = activation
1 | Cn1nnnc1SCc1cccc(CSc2nnnn2C)n1 | inconclusive: 25.9 µM [activator, partial curve, poor fit] | 
2 | COc1ccc(-c2cc3ncccc3cn2)cc1 | inconclusive: 1.64 µM [activator, full curve] | 
3 | Nc1ccccc1SCC(=O)Nc1nccs1 | inactive | 
4 | Cc1ccc(NC(=O)C2CCCO2)cc1[N+](=O)[O-] (stereo not given) | inactive | 
5 | N#C/C(=C\c1ccccc1)C(=O)NCCN1CCOCC1 | inactive | 
6 | COc1ccc(N(C)C(=O)c2ccc3snnc3c2)cc1 | inactive | 
7 | Cc1ccccc1Nc1c(-c2ccc(N3CCOCC3)cc2)nc2cnccn12 | inconclusive: 16.4 µM [activator, partial curve] | 
8 | CCC(=O)n1nc(-c2ccccc2)nc1NCc1ccccc1 | inconclusive: 23.1 µM [activator, single point] | 
9 | Cc1[nH]n(-c2ccccc2)c(=O)c1N=Nc1ccc(F)cc1 | inconclusive: 23.1 µM [activator, partial curve, poor fit] | 
10 | COc1ccc(/C=N/n2c(C)nnc2C)c(OC)c1 | inconclusive: 23.1 µM [activator, partial curve, poor fit] | 
11 | COc1cccc(NC(=O)c2cc3cccc(OC)c3o/c2=N\O)c1 | inconclusive: 6.51 µM [activator, partial curve] | 
12 | Cn1c(=O)c([N+](=O)[O-])c(NCCCn2ccnc2)c2ccccc21 | inactive | 
13 | CC(=O)c1ccc(NC(=O)CCc2nnc3ccc(N4CCC5(CC4)OCCO5)nn23)cc1 | inconclusive: 20.6 µM [activator, single point] | 
14 | CCCCOc1ccc(C(=O)O)cc1 | inactive | 
15 | COc1ccc(C(=O)Nc2ccc(F)cc2F)cc1 | inconclusive: 2.51 µM [activator, full curve, poor fit] | 
16 | O=C(NCCO)C(=O)Nc1cc2c3c(c1)CC(=O)N3CCC2 |  | inactive: 0.688% [at 9.26 µM]
17 | CC(C)(C)c1ccc(C(=O)Nc2cccc3c(=O)[nH][nH]c(=O)c23)cc1 | inconclusive: 2.06 µM [activator, full curve, poor fit] | 
18 | O=C(CCl)N1CCN(S(=O)(=O)c2ccc3c(c2)CCC3)CC1 | inactive | 
19 | O=C(CCN1CCCCO1)N1CCCC(N2CCN(c3ccc(F)cc3)CC2)C1 (stereo not given) |  | inactive: -0.821% [at 9.26 µM]
20 | NC(=O)c1ccccc1NC(=O)c1ccc2c(c1)OCO2 | inconclusive: 9.2 µM [activator, partial curve] | 
21 | C=C(C)CSc1nnc(-c2ccc(OC)cc2)n1N | inconclusive: 18.4 µM [activator, partial curve, poor fit] | 
22 | CCCn1cc(NC(=O)c2cc(-c3ccccc3)on2)cn1 | active: 23.1 µM | 
23 | Cc1cc(C(=O)Nc2ccc(N3CCCCC3)cc2)no1 | inconclusive: 1.16 µM [activator, partial curve] | 
24 | Cc1ccc(-n2nc3c(=O)n(CC(=O)NCc4ccccc4)nc(C)c3c2C)cc1 |  | inactive: -3.68% [at 9.26 µM]
25 | COc1ccc(N(C)S(=O)(=O)c2cccc(C(=O)Nc3nnc(C)s3)c2)cc1 | inactive | 

Row | SMILES | Potency | activity change, positive = activation
26 | Cc1ccc(C)c(NC(=O)c2nc(-c3ccccc3)n(-c3ccccc3)n2)c1 | inactive | 
27 | COc1cc2c(cc1NC(=O)C(C)OC(=O)C1CC(=O)N(Cc3ccco3)C1)oc1ccccc12 (stereo not given) | active: 20.6 µM | 
28 | COc1cccc(-c2nnc(NC(=O)c3ccco3)s2)c1 | active: 16.4 µM | 
29 | O=C(NCCO)c1ccc2[nH]c3ccccc3c2c1 | inconclusive: 18.4 µM [activator, partial curve, poor fit] | 
30 | O=C(Nc1ccc(Cl)cc1Cl)NC1CCCC1 | inactive | 
31 | COc1cccc([C@@H]2Oc3ccc(OC)cc3C(=O)[C@H]2O)c1 | active: 7.31 µM | 
32 | CCNc1nc(-c2ccc(Cl)cc2)cs1 | inconclusive: 2.59 µM [activator, full curve] | 
33 | NC(=O)c1ccccc1NC(=O)COc1ccc(Cl)cc1 | inconclusive: 14.6 µM [activator, partial curve] | 
34 | COc1ccc(CNC(=O)c2cc3ccccc3oc2=O)cc1 | inactive | 
35 | O=C(c1cc(-c2ccccc2Cl)on1)N1CCN(C(=O)c2ccco2)CC1 | inactive | 
36 | COc1cc(C(=O)OCCc2cc3ccccc3c(=O)o2)cc(OC)c1OC | inactive | 
37 | CN1CCN(c2nc(Nc3cccc(C(F)(F)F)c3)nc(N3CCOCC3)n2)CC1 | inconclusive: 29.1 µM [activator, partial curve, poor fit] | 
38 | Cc1cc(C)cc(NC(=O)C(c2ccccc2)N2CCN(CC(=O)NC3CC3)CC2)c1 (stereo not given) | inactive | 
39 | CC(=O)NC12CC3CC(C1)CC(C(=O)OCC(=O)c1ccc4c(c1)OCCO4)(C3)C2 | inconclusive: 11.6 µM [activator, partial curve] | 
40 | CN(C)c1ccc(/C=N/NC(=O)c2ccc(CN3CCOCC3)cc2)cc1Br | inactive | 
41 | CN(CC(=O)Nc1ccc(F)cc1)C(=O)CN1C(=O)NC2(CCCc3ccccc32)C1=O (stereo not given) | inactive | 
42 | COc1cccc(/C=C/C(=O)c2ccc[nH]2)c1 | active: 3.66 µM | 
43 | CN(CC(=O)N1CCN(Cc2ccccc2)CC1)C(=O)Cc1ccc(Cl)c(Cl)c1 | inactive | 
44 | O=C(c1nnc(-c2ccccc2)o1)C1CC1 | inconclusive: 20.6 µM [activator, partial curve, poor fit] | 
45 | COc1cc2ccccc2cc1C(=O)Nc1ccncc1 | active: 16.4 µM | 
46 | Cc1ccc(-c2nc3ccccn3c2C=O)cc1 | inconclusive: 6.51 µM [activator, partial curve, poor fit] | 
47 | O=C(OC(C(=O)NC1CCCCC1)c1ccccc1F)c1ccco1 (stereo not given) | inactive | 
48 | O=C(NC1CCCCC1)c1nc2c(nnn2Cc2ccccc2Cl)c(=O)[nH]1 | inactive | 
49 | CCc1[nH]nc(C(=O)NC2CCCc3c2cnn3-c2cc(C)cc(C)c2)c1C (stereo not given) | inconclusive: 16.4 µM [activator, partial curve] | 
50 | O=S(=O)(Nc1cccc(-c2ccc3nncn3n2)c1)c1ccccc1F | inconclusive: 18.3 µM [activator, partial curve, poor fit] | 
